In all, about 310,000 compounds went through this assay and about 14,000 (4.5%) showed an effect of 50% or more. The effect is printed as a negative number. This is one part of the list.
Biological target: human ether-à-go-go-related gene (hERG) potassium channel (human, UniProt Q12809)
Experiment: primary screen, population patch clamp on CHO cells stably expressing hERG
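Note: peak tail current of the secondary pulse compared with the same well before compound.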

Chain of human ether-à-go-go-related gene (hERG) potassium channel (Q12809 whole entry, looked up): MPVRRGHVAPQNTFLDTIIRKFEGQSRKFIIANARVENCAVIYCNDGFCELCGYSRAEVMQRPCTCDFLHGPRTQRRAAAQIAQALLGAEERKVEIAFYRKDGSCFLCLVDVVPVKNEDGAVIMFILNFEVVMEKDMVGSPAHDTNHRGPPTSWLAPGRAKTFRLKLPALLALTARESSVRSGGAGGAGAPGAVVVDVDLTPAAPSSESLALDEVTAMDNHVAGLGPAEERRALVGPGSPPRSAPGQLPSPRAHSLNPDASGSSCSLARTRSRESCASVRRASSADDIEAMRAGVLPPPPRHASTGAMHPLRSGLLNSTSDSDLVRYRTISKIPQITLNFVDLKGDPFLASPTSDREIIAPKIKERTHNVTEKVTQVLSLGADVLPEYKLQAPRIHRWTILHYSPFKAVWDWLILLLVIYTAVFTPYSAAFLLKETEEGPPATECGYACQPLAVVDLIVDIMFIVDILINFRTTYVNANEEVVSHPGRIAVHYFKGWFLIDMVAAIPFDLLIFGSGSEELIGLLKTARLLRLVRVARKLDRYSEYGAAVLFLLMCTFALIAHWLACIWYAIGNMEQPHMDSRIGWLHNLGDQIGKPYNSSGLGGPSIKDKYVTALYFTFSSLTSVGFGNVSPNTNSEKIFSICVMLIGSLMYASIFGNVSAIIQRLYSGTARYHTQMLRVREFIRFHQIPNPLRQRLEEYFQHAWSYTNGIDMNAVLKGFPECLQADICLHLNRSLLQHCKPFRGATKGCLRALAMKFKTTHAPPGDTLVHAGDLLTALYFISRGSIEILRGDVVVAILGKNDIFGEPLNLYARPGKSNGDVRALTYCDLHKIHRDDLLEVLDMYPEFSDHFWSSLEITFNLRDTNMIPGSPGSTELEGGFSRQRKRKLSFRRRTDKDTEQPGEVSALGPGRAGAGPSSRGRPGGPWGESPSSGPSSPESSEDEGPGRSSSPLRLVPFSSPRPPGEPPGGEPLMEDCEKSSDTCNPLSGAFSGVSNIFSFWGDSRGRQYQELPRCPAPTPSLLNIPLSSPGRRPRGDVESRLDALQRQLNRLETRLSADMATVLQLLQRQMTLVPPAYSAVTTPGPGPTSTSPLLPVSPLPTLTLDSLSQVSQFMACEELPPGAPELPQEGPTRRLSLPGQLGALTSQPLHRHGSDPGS

Compound	hERG current change (%, negative = inhibition) at 10uM [%]
Cc1cc(C)n(C(=O)/C(C#N)=C/N(C)C)n1	0.348
COc1ccc(N2CCN(C(=O)c3ccc(OCc4c(C)noc4C)c(OC)c3)CC2)cc1	6.01
CCn1c(=S)sc2c(=O)n(CC(=O)Nc3cc(OC)ccc3OC)c(C)nc21	-14.4
Cc1nn(CC(=O)N2CCN(c3ccccc3)CC2)c(=O)c2ccccc12	-2.21
Cc1cc(OCc2n[nH]c(=S)n2-c2ccccc2)ccc1Cl	21.2
CCCC(=O)N/C(N)=N/c1nc(C)c2cc(C)ccc2n1	-23.8
COc1cc(C#Cc2c(-c3cncn3C)n(C)c3ccc(-c4ccc(OC)nc4)cc23)cc(OC)c1	10.8
CCOc1ncccc1C(=O)OCc1csc(CC(=O)Nc2ccccc2C)n1	0.199
COc1ccccc1N(C)S(=O)(=O)c1ccc(C(=O)OCC(=O)Nc2ccccc2F)cc1	11.9
Cc1ccc2c(Cn3ccnc3)cc(=O)oc2c1C	13.7
Cc1ccc2c(c1)[C@H]1[C@H](CO2)[C@H](c2ccccc2)[C@]2(C)C(=O)Nc3cc(Cl)ccc3C(=O)N12	23.9
Cc1csc(N2CCc3ccccc32)n1	-11.1
CCOC(=O)C1=C(C)N(CCCC(=O)O)C(=O)NC1c1ccc2ccccc2c1 (stereo not drawn)	-9.51
O=C(NN1C(=O)c2ccccc2NC1c1ccccc1OCc1ccccc1)c1ccncc1 (stereo not drawn)	-1.43
Cc1ccccc1CN1CCNC1=O	11.1
Cc1nc(CSc2ccc(Br)cc2)cs1	22.9
COC(=O)c1cc(C(=O)c2ccc(Cl)cc2Cl)cn1C	-16.4
Cc1ccc(CNC(=O)CN(c2ccc(C)cc2)S(=O)(=O)c2c(C)nn(C)c2C)cc1	-0.614
NS(=O)(=O)c1ccc(NC(=S)NC2CCCCCC2)cc1	12.4
CC1CCc2cc(F)cc3c(O)c(C(=O)NCCN(C)C)c(=O)n1c23.Cl (stereo not drawn)	-1
Cc1nc2ccccc2n1CCc1nc2c3ccccc3nc(SCC(=O)NCc3ccco3)n2n1	-60
CCC(C(=O)NC1CC(C)(C)NC(C)(C)C1)c1ccccc1 (stereo not drawn)	7.18
CC(C)=NNC(=O)c1c(O)c2ccccc2[nH]c1=O	-20
Cc1cc(OCC(=O)OCC(=O)N2CCc3ccccc32)ccc1Cl	15.9

— paper PMC4336329 (PLoS ONE, 2015)
